From a compilation of properties of binary mixtures (doi:10.1021/je4007986)
“And” between values parts separate entries of the source, which are not always exact repeats. Equal values may be shown once. Some of these densities may be calculated back from excess volumes.

Assay: xn = mol fraction of the nth substance listed
Conditions: 298.15 K, 101 kPa

CCCCCCCCn1cc[n+](C)c1.[Cl-] + O
Conditions	mass density [kg/m3]
x1 = 0.005	998.7
x1 = 0.0058	998.8
x1 = 0.0066	999
x1 = 0.0074	999.1

CCCCCC[n+]1ccn(C)c1.[Cl-] + O
Conditions	mass density [kg/m3]
x1 = 0.003	998.7
x1 = 0.0031	998.9
x1 = 0.004	999.2
x1 = 0.0047	999.8
x1 = 0.005	999.8
x1 = 0.0061	1000.2
x1 = 0.0082	1001.7
x1 = 0.0083	1001.6
x1 = 0.0094	1002.2
x1 = 0.01	1002.5
x1 = 0.0106	1002.9
x1 = 0.0158	1005.6
x1 = 0.0178	1006.6

CCCC[n+]1ccn(C)c1.[Cl-] + O
Conditions	mass density [kg/m3]
x1 = 0.0012	998
x1 = 0.0022	998.6
x1 = 0.0092	1003.6
x1 = 0.0093	1003.5
x1 = 0.0106	1004.4
x1 = 0.0136	1006.7

CC[n+]1ccn(C)c1.[Cl-] + O
Conditions	mass density
x1 = 0.0015	998.4 kg/m3 and 998.5 kg/m3
x1 = 0.0029	999.9 kg/m3
x1 = 0.0076	1004 kg/m3
x1 = 0.0078	1003.8 kg/m3
x1 = 0.0093	1005.5 kg/m3
x1 = 0.0095	1005.3 kg/m3
x1 = 0.0112	1006.6 kg/m3
x1 = 0.0126	1008.1 kg/m3
x1 = 0.0129	1008.2 kg/m3
x1 = 0.0144	1009.8 kg/m3
x1 = 0.0147	1009.7 kg/m3
x1 = 0.016	1011 kg/m3
x1 = 0.0166	1011.2 kg/m3
